Reference: a collection of fitness landscapes (doi:10.1016/j.celrep.2020.107928)
The full ranking holds about 81,000 sequences; the median of “one-hybrid fitness for binding parS DNA” is about -0.17, and the highest 2% start at about 0.51. The list shows a part of the results.

B1: Caulobacter ParB omega fusion; a variant is named by its letters at X, in order, B8GW30 (parent)
chain: MESVVVGEPGMSEGRRGLGRGLSALLGEVDAAPAQAPGEQLGGSREAPIEILQRNPDQPRRTFREEDLEDLSNSIREKGVLQPILVRPSPDTAGEYQIVAGERAWRAAQRAGLKTVPIMVRELDDLAVLEIGIIENVQRADLNVLEEALSYKVLMEKFERTQENIAQTIGKSXSHVANXMRLLXLPDEVQSYLVSGELTAXHARAIAAAADPVALAKQIIEGGLSVRETEALARKAPNLSAGKSKGGRPPRVKDTDTQALESDLSSVLGLDVSIDHRGSTGTLTITYATLEQLDDLCNRLTRGI

Variants of: B1
Test: one-hybrid fitness for binding parS DNA (scaled: cognate 1, non-cognate 0); higher = stronger binding
Settings: with parS DNA site
Summary of the method: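 Fitness here means the log change in variant-to-wild-type read ratio between plasmids sequenced before and after selection. That scale was set so cognate equals 1 and non-cognate equals 0. The selection was a bacterial one-hybrid screen of Caulobacter ParB libraries, four specificity codons randomised, in E. coli USO carrying a HIS3 reporter with the site 19 bp from the promoter, grown 48 hours at 37°C on M9-minus-histidine with 0.1 mM IPTG and 5 mM 3-AT.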

| Variant | one-hybrid fitness for binding parS DNA |
| --- | --- |
| RYYN | 0.383 |
| VYDS | ≤ 0.2 |
| FVVE | ≤ 0.2 |
| VWPT | ≤ 0.2 |
| ENSM | ≤ 0.2 |
| PLCA | ≤ 0.2 |
| TQGR | ≤ 0.2 |
| CGPL | ≤ 0.2 |
| CWPS | ≤ 0.2 |
| HMCC | ≤ 0.2 |
| WSHF | ≤ 0.2 |
| MLMV | ≤ 0.2 |
| TFQC | ≤ 0.2 |
| ASKT | ≤ 0.2 |
| NWNL | ≤ 0.2 |
| DGRR | ≤ 0.2 |
| LCMR | ≤ 0.2 |
| WIPI | ≤ 0.2 |
| AHMW | ≤ 0.2 |
| SHRL | ≤ 0.2 |
| NQER | ≤ 0.2 |
| SHNK | ≤ 0.2 |
| TTLP | ≤ 0.2 |
| QRKS | ≤ 0.2 |

| Variant | one-hybrid fitness for binding parS DNA |
| --- | --- |
| PVPC | ≤ 0.2 |
| EVYV | ≤ 0.2 |
| HYTC | ≤ 0.2 |
| PTTG | ≤ 0.2 |
| TMWC | ≤ 0.2 |
| YMRS | ≤ 0.2 |
| AWVR | ≤ 0.2 |
| HCPL | ≤ 0.2 |
| KYYF | ≤ 0.2 |
| CAKT | ≤ 0.2 |
| SMRG | ≤ 0.2 |
| GSPI | ≤ 0.2 |
| ENRW | ≤ 0.2 |
| ARYK | ≤ 0.2 |
| FVPR | ≤ 0.2 |
| KDCR | ≤ 0.2 |
| NTTW | ≤ 0.2 |
| FNGC | ≤ 0.2 |
| WSTL | ≤ 0.2 |
| AGAG | ≤ 0.2 |
| GHIT | ≤ 0.2 |
| EAPM | ≤ 0.2 |
| ILLG | ≤ 0.2 |
| VMNF | ≤ 0.2 |

| Variant | one-hybrid fitness for binding parS DNA |
| --- | --- |
| CART | ≤ 0.2 |
| QMIK | ≤ 0.2 |
| LYRI | ≤ 0.2 |
| DSIV | ≤ 0.2 |
| PKSS | ≤ 0.2 |
| RCQI | ≤ 0.2 |
| PWYF | ≤ 0.2 |
| MYSR | ≤ 0.2 |
| SILT | ≤ 0.2 |
| TPEL | ≤ 0.2 |
| WCCG | ≤ 0.2 |
| RNLF | ≤ 0.2 |
| TRDD | ≤ 0.2 |
| MTVV | ≤ 0.2 |
| PFMT | ≤ 0.2 |
| RWTP | ≤ 0.2 |
| GTMS | ≤ 0.2 |
| HVAC | ≤ 0.2 |
| IMTG | ≤ 0.2 |
| DVVA | ≤ 0.2 |
| AVTA | ≤ 0.2 |
| YSLT | ≤ 0.2 |
| KCIW | ≤ 0.2 |
| AGHY | ≤ 0.2 |

| Variant | one-hybrid fitness for binding parS DNA |
| --- | --- |
| NMMS | ≤ 0.2 |
| EYSL | ≤ 0.2 |
| DKAW | ≤ 0.2 |
| WCYE | ≤ 0.2 |
| ITVS | ≤ 0.2 |
| VCGR | ≤ 0.2 |
| GPAR | ≤ 0.2 |
| RSFV | ≤ 0.2 |
| HRNY | ≤ 0.2 |
| RMHS | 0.979 |
| HSCC | ≤ 0.2 |
| ISNA | ≤ 0.2 |
| LASV | ≤ 0.2 |
| QFNF | ≤ 0.2 |
| NPIG | ≤ 0.2 |
| LRPT | ≤ 0.2 |
| TAGT | ≤ 0.2 |
| SKMC | ≤ 0.2 |
| KNAD | ≤ 0.2 |
| SEWS | ≤ 0.2 |
| WRAA | ≤ 0.2 |
| PGFW | ≤ 0.2 |
| LFYS | ≤ 0.2 |
| RGNN | 0.321 |

| Variant | one-hybrid fitness for binding parS DNA |
| --- | --- |
| VQKF | ≤ 0.2 |
| QGPY | ≤ 0.2 |
| NCPI | ≤ 0.2 |
| FSMD | ≤ 0.2 |
| TTKW | ≤ 0.2 |
| HHFF | ≤ 0.2 |
| RQYL | 0.208 |
| PRNR | ≤ 0.2 |
| YLIR | ≤ 0.2 |
| NVCS | ≤ 0.2 |
| WREM | ≤ 0.2 |
| RTLV | ≤ 0.2 |
| ESIG | ≤ 0.2 |
| IDPC | ≤ 0.2 |
| PRWY | ≤ 0.2 |
| RNDQ | ≤ 0.2 |
| TQKS | ≤ 0.2 |
| APSE | ≤ 0.2 |
| RSTN | 0.461 |
| RLPC | 0.681 |
| PGFR | ≤ 0.2 |
| SHTD | ≤ 0.2 |
| LLMI | ≤ 0.2 |
| VQKS | ≤ 0.2 |

| Variant | one-hybrid fitness for binding parS DNA |
| --- | --- |
| AIAN | ≤ 0.2 |
| QLTM | ≤ 0.2 |
| RYFM | 0.264 |
| LYIT | ≤ 0.2 |
| LSLN | ≤ 0.2 |
| YPNV | ≤ 0.2 |
| QYLS | ≤ 0.2 |
| HQCC | ≤ 0.2 |
| TPML | ≤ 0.2 |
| LWDW | ≤ 0.2 |
| CRIN | ≤ 0.2 |
| LWTV | ≤ 0.2 |
| NQMP | ≤ 0.2 |
| SVNS | ≤ 0.2 |
| MMTR | ≤ 0.2 |
| MTCC | ≤ 0.2 |
| MPVM | ≤ 0.2 |
| KFCR | ≤ 0.2 |
| KRGL | ≤ 0.2 |
| EKSN | ≤ 0.2 |
| WNTT | ≤ 0.2 |
| LLNS | ≤ 0.2 |
| MFNG | ≤ 0.2 |
| HKVG | ≤ 0.2 |

| Variant | one-hybrid fitness for binding parS DNA |
| --- | --- |
| QLNL | ≤ 0.2 |
| GTRF | ≤ 0.2 |
| NLMV | ≤ 0.2 |
| STVP | ≤ 0.2 |
| RLNY | 0.495 |
| KYTV | ≤ 0.2 |
| RVFI | ≤ 0.2 |
| TTHP | ≤ 0.2 |
| MCGA | ≤ 0.2 |
| KCLT | ≤ 0.2 |
| QPHC | ≤ 0.2 |
| SGSK | ≤ 0.2 |
| IRTI | ≤ 0.2 |
| MGTY | ≤ 0.2 |
| TRYS | ≤ 0.2 |
| QTEQ | ≤ 0.2 |
| IYVR | ≤ 0.2 |
| VNHT | ≤ 0.2 |
| RWRY | 0.494 |
| ATPM | ≤ 0.2 |
| MKVC | ≤ 0.2 |
| WLVS | ≤ 0.2 |
| IINP | ≤ 0.2 |
| FRLL | ≤ 0.2 |

| Variant | one-hybrid fitness for binding parS DNA |
| --- | --- |
| WASG | ≤ 0.2 |
| RYWQ | ≤ 0.2 |
| PYFF | ≤ 0.2 |
| CMRG | ≤ 0.2 |
| HDNT | ≤ 0.2 |
| RGIL | ≤ 0.2 |
| HSLF | ≤ 0.2 |
| QNVF | ≤ 0.2 |
| YFDC | ≤ 0.2 |
| VTST | ≤ 0.2 |
| MTEL | ≤ 0.2 |
| CMNR | ≤ 0.2 |
| PVGG | ≤ 0.2 |
| LNKC | ≤ 0.2 |
| ATPF | ≤ 0.2 |
| EMGG | ≤ 0.2 |
| EWTS | ≤ 0.2 |
| TVFT | ≤ 0.2 |
| DRGH | ≤ 0.2 |
| NIPW | ≤ 0.2 |
| QDDF | ≤ 0.2 |
| MYTG | ≤ 0.2 |
| HMIC | ≤ 0.2 |
| QNPL | ≤ 0.2 |

| Variant | one-hybrid fitness for binding parS DNA |
| --- | --- |
| RTHN | 0.45 |
| FGCG | ≤ 0.2 |
| QKNA | ≤ 0.2 |
| QCVD | ≤ 0.2 |
| GESG | ≤ 0.2 |
| TVRV | ≤ 0.2 |
| ETGA | ≤ 0.2 |
| IQQR | ≤ 0.2 |
| RARA | 0.658 |
| PDKT | ≤ 0.2 |
| DQSR | ≤ 0.2 |
| TFGG | ≤ 0.2 |
| PYTM | ≤ 0.2 |
| VNKS | ≤ 0.2 |
| ADSF | ≤ 0.2 |
| ITNH | ≤ 0.2 |
| MRVS | ≤ 0.2 |
| YNQR | ≤ 0.2 |
| TYQG | ≤ 0.2 |
| RNVH | 0.202 |
| SWLR | ≤ 0.2 |
| KTKT | ≤ 0.2 |
| HDSR | ≤ 0.2 |
| LENT | ≤ 0.2 |

| Variant | one-hybrid fitness for binding parS DNA |
| --- | --- |
| CSNH | ≤ 0.2 |
| MRES | ≤ 0.2 |
| RHKS | 0.777 |
| RIKT | 0.772 |
| LRQV | ≤ 0.2 |
| EMHT | ≤ 0.2 |
| GMFT | ≤ 0.2 |
| CYLN | ≤ 0.2 |
| IFAT | ≤ 0.2 |
| ANVY | ≤ 0.2 |
| HTPC | ≤ 0.2 |
| NLDR | ≤ 0.2 |
| SHAC | ≤ 0.2 |
| RGHE | ≤ 0.2 |
| TMTN | ≤ 0.2 |
| DTST | ≤ 0.2 |
| SKNR | ≤ 0.2 |
| KFVF | ≤ 0.2 |
| KANG | ≤ 0.2 |
| RPRT | ≤ 0.2 |
| QSWV | ≤ 0.2 |
| DPAT | ≤ 0.2 |
| SMEA | ≤ 0.2 |
| RANM | 0.329 |

| Variant | one-hybrid fitness for binding parS DNA |
| --- | --- |
| PVDV | ≤ 0.2 |
| LYYI | ≤ 0.2 |
| KCGL | ≤ 0.2 |
| KFNY | ≤ 0.2 |
| ICKM | ≤ 0.2 |
| DWSI | ≤ 0.2 |
| SGAW | ≤ 0.2 |
| QQDW | ≤ 0.2 |
| LSNC | ≤ 0.2 |
| NCAC | ≤ 0.2 |
| STGF | ≤ 0.2 |
| MTRY | ≤ 0.2 |
| TVLG | ≤ 0.2 |
| RCKS | 0.836 |
| RAVI | ≤ 0.2 |
| RTCG | 0.999 |
| DFIG | ≤ 0.2 |
| TAVQ | ≤ 0.2 |
| TLMY | ≤ 0.2 |
| HRWN | ≤ 0.2 |
| ISCY | ≤ 0.2 |
| GDWL | ≤ 0.2 |
| LAEP | ≤ 0.2 |
| CTTG | ≤ 0.2 |

| Variant | one-hybrid fitness for binding parS DNA |
| --- | --- |
| GQIS | ≤ 0.2 |
| FGNC | ≤ 0.2 |
| QFSK | ≤ 0.2 |
| SLTK | ≤ 0.2 |
| ENRG | ≤ 0.2 |
| TGQR | ≤ 0.2 |
| SHEK | 0.249 |
| QKGD | ≤ 0.2 |
| LVSF | ≤ 0.2 |
| QYNF | ≤ 0.2 |
| VTVE | ≤ 0.2 |
| CQRM | ≤ 0.2 |
| APIL | ≤ 0.2 |
| HLHF | ≤ 0.2 |
| ECMP | ≤ 0.2 |
| CWKR | ≤ 0.2 |
| FKAA | ≤ 0.2 |
| HLIV | ≤ 0.2 |
| RPTL | ≤ 0.2 |
| DLYS | ≤ 0.2 |
| GLGL | ≤ 0.2 |
| RREM | ≤ 0.2 |
| YLEY | ≤ 0.2 |
| STQM | ≤ 0.2 |

| Variant | one-hybrid fitness for binding parS DNA |
| --- | --- |
| PQPR | ≤ 0.2 |
| AIMG | ≤ 0.2 |
| YWRN | ≤ 0.2 |
| DLYM | ≤ 0.2 |
| ASCL | ≤ 0.2 |
| RKMG | 0.951 |
| QPEY | ≤ 0.2 |
| GWVR | ≤ 0.2 |
| IRAF | ≤ 0.2 |
| QHVT | ≤ 0.2 |
| RESL | ≤ 0.2 |
| YWVL | ≤ 0.2 |
| AFHR | ≤ 0.2 |
| ASMR | ≤ 0.2 |
| QTCD | ≤ 0.2 |
| RTMK | ≤ 0.2 |
| TPTF | ≤ 0.2 |
| YLSD | ≤ 0.2 |
